The campaign covered roughly 420,000 compounds. About 64,000 (15%) were called active. This list was built around the results that the source calls inconclusive (neither active nor inactive); the mix of calls is not that of the screen. Calls come from the whole dose curve; as a rule, active = well fitted inhibition curve with a large enough effect; inconclusive = small, poorly fitted or top-dose-only effect; inactive = flat fitted curve, though single readings scatter. No potency is given beside an inconclusive call; the fits are too rough.
Experiment: qHTS for Inhibitors of human tyrosyl-DNA phosphodiesterase 1 (TDP1): qHTS in cells in absence of CPT; note: nearly all actives have a fitted effect of over 55% in size
Conditions: DT40 Tdp1-/- hTDP1 cells, no CPT, ATP luminescence, 48 h; activity change, negative = growth inhibition: at 46.2 µM (top of the series) unless noted
Summary of the method: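 DT40 Tdp1-/-;hTDP1 cells, no CPT (DMSO vehicle only), 400 cells/well; compounds pin-transferred; ≥48 hr, 37 °C; CellTiter-Glo 30 min RT dark, luminescence read.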
% is set by controls: 0 for no effect and ±100 for the full control effect; potency is the fitted concentration of half-maximal effect; tags give direction and shape of the fitted curve.

SMILES	Potency	activity change, negative = growth inhibition
O=C(NC1CCCCCC1)C1CCN(C(=O)N2CCOc3ccc(Cl)cc32)CC1	inconclusive [inhibitor, single point]	
CC(C)(C)S(=O)(=O)/C(C#N)=C/c1cccn1S(=O)(=O)c1ccccc1	active: 23.1 µM	
COCOc1ccc(-c2ncc(OCCN3CCCC3=O)nc2NC(=O)c2cc3ccccc3s2)cc1	inconclusive [inhibitor, single point]	
Cc1ccc(C2=NS(=O)(=O)N(C)C(C(=O)NC3CCCC3)=C2)cc1	inconclusive [inhibitor, partial curve]	
Cc1cc(Nc2cccc(C(F)(F)F)c2)n2nc(C)nc2n1	inconclusive [inhibitor, single point]	
CCCN1/C(=C2/SC(=S)N(CC)C2=O)C=Cc2ccccc21	inconclusive [inhibitor, single point]	
COc1ccc(-n2nc3c(N4CCC(C(=O)NCc5ccco5)CC4)nnc(C)c3c2C)cc1	inconclusive [inhibitor, single point]	
Cc1cc(C)nc(/N=C(\N)Nc2ccc(F)c([N+](=O)[O-])c2)n1	inconclusive [inhibitor, single point]	
CCOCCCNC(=O)c1ccc2c(c1)NC(=O)C(CS(=O)(=O)Cc1ccc(F)cc1Cl)N2 (configuration not stated)		inactive: -5.5%
Cc1ccccc1OCCn1cc(C(=O)O)c2ccccc21		inactive: 12.2%
CCN(CC)CCN(CC)c1ccc(/C=C/c2ccnc3ccccc23)cc1	active: 4.47 µM	
C=CCOc1cccc(/C=C/c2nc3ccccc3c(=O)[nH]2)c1		inactive: -19.8%
O=C(/C=C/c1ccc([N+](=O)[O-])cc1)NCCSCc1ccco1	inconclusive [inhibitor, single point]	
COc1cccc(-c2nc(NCCc3c[nH]c4ccc(OC)cc34)c3ccccc3n2)c1	inconclusive [inhibitor, single point]	
CCOc1cccc(CNCCCSc2ncccn2)c1	active: 14.6 µM	
COc1ccc(CCN(C)CCN2C(=O)c3ccccc3C2=O)cc1OC		inactive: -23.2%
O=C(COC(=O)c1n[nH]c(=O)c2ccccc12)c1ccccc1	inconclusive [inhibitor, partial curve]	
CCc1cc(C(=O)NC2CCCc3c2cnn3-c2cccc(C)c2C)n(C)n1 (configuration not stated)	active: 0.164 µM	
Cc1cc(C)c(NC(=O)C(C)n2c(=O)cc(C)c3c(C)nn(-c4ccccc4)c32)c(C)c1 (configuration not stated)	inconclusive [inhibitor, single point]	
COc1cccc(-c2ncc3ccccc3c2COC(=O)c2ccccc2C(=O)O)c1	inconclusive [inhibitor, single point]	
COC(=O)/C=C1\S/C(=N/N=C/c2ccc(Cl)cc2)NC1=O		inactive: -14.8%
CCN(CC)c1nc2cc(C)ccc2cc1/C=C(\C#N)C(N)=O	inconclusive [inhibitor, single point]	
O=C(Nc1ccc(Cl)cc1Cl)c1cc(S(=O)(=O)N2CCC3(CC2)OCCO3)ccc1F	active: 16.4 µM	
CCN(CCCNC(=O)CSc1cc(=O)n(C)c2ccccc12)c1ccccc1	inconclusive [inhibitor, single point]	

SMILES	Potency	activity change, negative = growth inhibition
O=C(NCCc1ccccc1)C1(S(=O)(=O)c2ccc(Cl)cc2)CC1		inactive: 3.96%
CCOc1cccc(NC(=O)C2CC(=O)N(C)C(=Nc3cccc(OC)c3)S2)c1 (configuration not stated)	inconclusive [inhibitor, single point]	
Cc1cc2oc3cc(NCCC4CCCN4C)ccc3c(=O)c2cc1C (configuration not stated)	active: 5.8 µM	
CCSc1nc2ccccc2n1C(=O)c1ccc(S(=O)(=O)N2CCCCC2)cc1	inconclusive [inhibitor, full curve]	
O=[N+]([O-])c1cccc2nc3ccccc3c(NCCCn3ccnc3[N+](=O)[O-])c12	active: 0.184 µM	
N/C(=N\N=C\c1ccc(O)cc1)c1nonc1N		inactive: -25.7%
CC(C)C(NC(=O)C1CCCCC1)C(=O)NCc1ccccn1 (configuration not stated)	inconclusive [inhibitor, full curve]	
CN(C)S(=O)(=O)c1ccc(NC(=O)COC(=O)CC2CC3CCC2C3)cc1 (configuration not stated)		inactive: -1.74%
COc1ccc2c(c1)c(C(C)=O)c(C)n2CCc1ccccc1	inconclusive [inhibitor, single point]	
COc1ccc(C)cc1NC(=O)CSc1nc2scc(C)c2c(=O)[nH]1		inactive: -23.1%
Cc1ccc2c(c1)c1c3n2CCN(CC(N)=O)C3CCC1 (configuration not stated)	inconclusive [inhibitor, single point]	
CN(C)C(=O)c1cnc(-c2ccccc2)nc1-c1ccccc1		inactive: -28%
O=C(NCc1cccc(F)c1)C1CCN(c2nc3ccccc3nc2C(F)(F)F)CC1	inconclusive [inhibitor, full curve, poor fit]	
CC(=O)N1CCc2c(sc3c2c(=O)n(-c2ccccc2)c(=O)n3CC(=O)c2ccc(Cl)cc2)C1	inconclusive [inhibitor, single point]	
CC(C)Cc1ccc(CN2CCC(n3nccc3NC(=O)C3CCCC3)CC2)cc1	inconclusive [inhibitor, single point]	
COc1ccc(NC(=O)CSc2ccc(-c3cccnc3)nn2)c(OC)c1		inactive: -29.6%
COc1ccccc1CNc1nc2cc(-c3ccsc3)sc2c(=O)n1C	inconclusive [inhibitor, single point]	
CN(C(=O)CN1CCN(c2ccc([N+](=O)[O-])cn2)CC1)c1ccccc1	inconclusive [inhibitor, single point]	
CCOc1ccc(CCNC(=O)COC(=O)/C=C/c2ccccc2)cc1OCC	inconclusive [inhibitor, partial curve]	
CC(=O)c1cnn(-c2ccc(Cl)c(Cl)c2Cl)c1C	inconclusive [inhibitor, partial curve, poor fit]	
CC1(C(=O)Nc2ccc3c(c2)OCO3)CCN1Cc1csc2ccccc12 (configuration not stated)	inconclusive [inhibitor, partial curve, poor fit]	
COc1ccccc1-c1cnc(C(O)c2ccc(C)cc2C)[nH]1 (configuration not stated)	inconclusive [inhibitor, single point]	
CC(C)(C)NC(=O)C(c1ccc(F)cc1)N(C(=O)CCC(=O)Nc1ccccn1)C1CCCC1 (configuration not stated)		inactive: -23.1%
O=C(NCCN1CCOCC1)c1cccc(NS(=O)(=O)c2ccc(Br)cc2)c1		inactive: -8.29%

SMILES	Potency	activity change, negative = growth inhibition
Cc1cccc(NC(=O)c2ccccc2C(=O)Nc2cccc(C)c2)c1		inactive: -15.7%
CC1CCN(S(=O)(=O)c2ccc(NC(=O)C3CCN(C(=O)c4ccco4)CC3)cc2)CC1	inconclusive [inhibitor, single point]	
CCCCCCCCN1N=N[C@H]2[C@H]1[C@@H]1C[C@H]2N(C(=O)OC(C)(C)C)O1	inconclusive [inhibitor, single point]	
COc1ccc(NC(=O)C2CC(=O)N(c3ccccc3F)C2)cc1S(=O)(=O)N1CCCCC1 (configuration not stated)	inconclusive [inhibitor, single point]	
CCOc1ccc(OCCOC(=O)C2CCN(S(=O)(=O)c3ccc(C)c(C)c3)CC2)cc1		inactive: -5.25%
COC(=O)c1cc([N+](=O)[O-])ccc1N1CCN(Cc2ccccc2)CC1	inconclusive [inhibitor, single point]	
CCOc1ccc(-n2c(=O)c3sccc3n(Cc3cccc([N+](=O)[O-])c3)c2=O)cc1	inconclusive [inhibitor, single point]	
CC1CCC(NC(=O)CN2CCCN(Cc3ccc(F)cc3Cl)C2=O)CC1 (configuration not stated)	inconclusive [inhibitor, single point]	
COc1ccccc1NC(=O)C(Cc1ccccc1)NS(=O)(=O)c1ccc2c(c1)CCN2C(C)=O (configuration not stated)		inactive: -27.9%
CC(=O)OC1CCC2(C)C3CCC4(C)C(CC5CCCCC54C(C)=O)C3CC(=O)[C@@]2(O)C1 (some centres not stated)	inconclusive [inhibitor, single point]	
Cc1ccc(CNC(=O)C2(C)CCN2C(=O)Cc2ccc(C(C)(C)C)cc2)cc1 (configuration not stated)	active: 18.4 µM	
CC(=O)N1CCN(c2nnc(-c3ccc(C)cc3)c3ccccc23)CC1	inconclusive [inhibitor, single point]	
O=C(c1cccc(Cl)c1)N1CCN(c2ncccn2)CC1		inactive: 16.7%
CC(=O)N1CCOc2cc(S(=O)(=O)NCc3ccccc3Cl)c(C)cc21		inactive: -15%
O=C(Nc1c(C(=O)c2ccccc2)oc2ccccc12)c1cc(-c2ccccc2O)n[nH]1	active: 18.4 µM	
O=C(NNC1=C(C(=O)C(F)(F)F)CCC1)c1ccc(Br)cc1	active: 16.4 µM	
Cc1ccc(C(=O)Nc2ccc(C(=O)O)cc2NC(=O)c2ccc(C)cc2)cc1		inactive: -12.6%
COc1cc(C2CC(=O)Oc3cc(C)c(Br)c(C)c32)cc(OC)c1OC (configuration not stated)	inconclusive [inhibitor, single point]	
COc1ccc(C(O)(CC(C)C)C(CN2CCOCC2)c2ccccc2)cc1 (configuration not stated)	active: 20.6 µM	
O=C(Nc1cccc([N+](=O)[O-])c1)NN1CCCCCC1	active: 18.4 µM	
Cc1c(NC(=O)c2c([N+](=O)[O-])cnn2C)c(=O)n(-c2ccccc2)n1C		inactive: 5.36%
Cc1ccc(NC(=O)c2noc(C(C)C)c2[N+](=O)[O-])cc1	active: 18.4 µM	
Cc1cc(C)c(C)c(OCCN2CCOCC2)c1		inactive: 6.34%
CCc1ccccc1Nc1nn2c(=O)c3ccc(C(=O)NCc4ccc(C)cc4)cc3nc2s1	active: 8.2 µM	

Reference: PubChem BioAssay AID686978 (National Center for Advancing Translational Sciences (NCATS), 2013)
